Screen size: about 45,000 compounds; about 200 (0.44%) were called active. Inconclusive results (about 7%) are left out. Calls come from the whole dose curve; as a rule, active = well fitted activation curve with a large enough effect; inconclusive = small, poorly fitted or top-dose-only effect; inactive = no such curve, though single readings can be large or run the other way. The list shows a part of the results.
Experiment: qHTS of TDP-43 Inhibitors: NCGC Sytravon Library Screen; note: 0% is about no effect; nearly all actives have a fitted effect of over 55% in size
Details: yeast TDP-43 toxicity rescue, BacTiter-Glo growth, 24 h; series mostly up to 46.1 µM; growth rescue (activation): at the top concentration
Procedure, shortened: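 TDP-43-expressing yeast, pregrown in raffinose, seeded at OD600 0.02 in galactose medium with compound for 24 hr at 30 deg C. Growth read by BacTiter-Glo luminescence, so rescue of toxicity appears as activation.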

SMILES | growth rescue (activation)
C=CC[N+](C)(C)CCN1C(=O)C2C(c3ccccc3)C=CC(c3ccccc3)C2C1=O (stereo not drawn) | inactive: -0.395%
Cc1ccccc1OCC(=O)NNC(=O)CCN1C(=O)c2ccccc2C1=O | inactive: 0.175%
Cc1cccn2cc(COc3cccc([N+](=O)[O-])c3)nc12 | inactive: 8.85%
Cc1cc(N2CCN(C)CC2)nc2ccc(NC(=S)N3CCN(c4ccc(Cl)cc4)CC3)cc12 | inactive: 16%
CCNC(=O)Nc1ccccc1C(=O)OC | inactive: 17.7%
CC(NC(=O)CCc1nnc(-c2ccc(-c3ccccc3)cc2)o1)c1nccs1 (stereo not drawn) | inactive: 14%
Cc1ccc2nc3c(cc(C(=O)NC4CCCCC4)c(=N)n3C3CCCCC3)c(=O)n2c1 | inactive: -1.02%
COc1ccc2c(c1)c(=O)oc1c(C)c(OCC(=O)N3CCc4ccccc4C3)ccc12 | inactive: 30.8%
Cc1ccc(OCC(=O)Nc2ccc3nn(-c4ccc(Cl)cc4)nc3c2)cc1 | inactive: -4.18%
Cc1ccc(-c2noc(-c3ccoc3C)n2)cc1 | inactive: -0.672%
Cc1cccc(N2CCN(Cc3nc(CC4CC4)no3)CC2)n1 | inactive: 20.5%
OC[C@@H]1CN(Cc2ccccc2)C[C@H](n2cnc3c(NC4CC4)ncnc32)O1 | inactive: -0.295%
Cn1cc(CN(Cc2ccccc2)C[C@@H]2CCC(=O)N2)c(-c2ccccc2F)n1 | inactive: -15.9%
COC(CNC(=O)CSCc1nc(-c2ccc(SC)cc2)oc1C)OC | inactive: 8.09%
COc1ccc(N/C(=N/c2nc(C)cc(C)n2)NC(=O)c2ccccc2)cc1 | inactive: 13.1%
O=C(OCC(=O)N1CCOCC1)c1ccccc1Br | inactive: 19.8%
CCN(CC)C(=O)Cn1cnc2sc(C(=O)NCCCN3CCOCC3)c(C)c2c1=O | inactive: 4.26%
Cc1ccc(/C(N)=N/OC(=O)Cc2ccccc2)cc1 | inactive: 46.3%
CC1(C)NC(=O)N(CC(O)CN(c2cccc([N+](=O)[O-])c2)S(=O)(=O)c2ccccc2)C1=O (stereo not drawn) | inactive: -6.16%
CCNC(=O)CN(c1ccc(F)cc1)S(=O)(=O)c1ccc2c(c1)OCCO2 | inactive: -17.1%
COc1ccc(NC(=O)[C@@H]2CCCN2S(=O)(=O)c2ccccc2F)cc1S(=O)(=O)N1CCCCC1 | inactive: -3.87%
CON1C(=O)C(=O)N(OC)C(C)(C)C1(C)C | inactive: -26.1%
OC1CCCN(Cc2cn(Cc3ccccc3)nc2-c2cc3ccccc3o2)C1 (stereo not drawn) | inactive: 0.887%

SMILES | growth rescue (activation)
O=C(Nc1ccc([N+](=O)[O-])cn1)c1cc(-c2cccc(Cl)c2)nc2ccccc12 | inactive: 8.89%
CS(=O)(=O)N1CCCC(C(=O)Nc2ccc3c(c2)OCCO3)C1 (stereo not drawn) | inactive: 2.11%
COc1cccc(OCCNC(=O)c2cccc(OC)c2)c1 | inactive: 15.5%
NC(=O)c1ccc(NCC2COc3ccccc3O2)c([N+](=O)[O-])c1 (stereo not drawn) | inactive: 1.46%
Cc1cccc(NC(=S)NC(=O)/C=C/c2ccco2)c1 | inactive: 14.4%
CCn1cc(C(=O)NCCCN2CCCCCC2)c(=O)c2cc(S(=O)(=O)N3CCc4ccccc4C3)ccc21 | inactive: 9.67%
COc1ccc(S(=O)(=O)NCC(=O)N(CC(=O)NCc2ccco2)Cc2ccccc2)cc1 | inactive: 13.2%
Cc1ccc(-n2sc3ccccc3c2=O)cc1 | inactive: -91.1%
COc1ccc(OC)c2c(C)cc(C)nc12 | inactive: 4.33%
O=C(CSc1nnc(COc2cccc3ccccc23)o1)N1c2ccccc2CCc2ccccc21 | inactive: 18.5%
O=C(CSc1ncnc2ccccc12)NCc1ccco1 | inactive: 8.17%
Cc1ccc(C)c2c1cc(C)c1nnc(SCC(=O)Nc3cccc(C(=O)O)c3)n12 | inactive: 13.3%
Cn1nc(C(=O)OCC(=O)c2ccc(Br)cc2)c2ccccc2c1=O | inactive: 24.3%
CCc1nc2ccc(C(=O)NCCN3CCNC3=O)cn2c1N(C)CCC(C)C | inactive: 3.55%
COP(=O)(OC)C(Nc1ccc(C)cc1)c1ccc(Br)cc1 (stereo not drawn) | inactive: 15.1%
O=C1c2cccc3c(N4CCCCC4)ccc(c23)C(=O)N1c1ccccn1 | inactive: 19.7%
CN(CC(=O)Nc1ccc(F)c(F)c1)S(=O)(=O)c1cccs1 | inactive: 26.5%
O=C(CSc1nnc2ccccn12)NNC(=O)c1ccc(Cl)cc1 | inactive: 6.19%
CC1OC(Nc2ccc(N=Nc3ccccc3)cc2)C(O)C(O)C1O (stereo not drawn) | inactive: 5.63%
COc1ccc(CCNC(=O)CSc2nc3scc(-c4ccccc4)c3c(=O)[nH]2)cc1 | inactive: 14.9%
CCOC(=O)C1CCN(C(=O)C(C)Sc2nnc3ccccn23)CC1 (stereo not drawn) | inactive: -11.4%
CCSc1ncc(Cl)c(C(=O)Nc2nc3ccc(Cl)cc3s2)n1 | inactive: -5.59%
Cc1ccc(N(CC(=O)NCC2CCCO2)C(=O)CCC(=O)Nc2nccs2)cc1C (stereo not drawn) | inactive: 7.57%

SMILES | growth rescue (activation)
Clc1ccc(SCCCCn2ccnc2)cc1 | inactive: -5.78%
CCNNC(=O)C(O)(Cc1ccccc1)Cc1ccccc1 | inactive: 5.02%
Cc1ccc(-n2c(=O)c3c(cnn3C)n(Cc3ccc(Cl)cc3)c2=O)cc1 | inactive: 17%
COC(=O)Cc1ccc2sc(-c3ccccc3)nc2c1 | inactive: 19.8%
Cc1cc(C(=O)NCC(=O)OCC(=O)N(C)C2CCCCC2)ccc1[N+](=O)[O-] | inactive: -1.76%
O=C(NCc1ccccc1)c1cc(C2CCCCN2S(=O)(=O)c2ccccc2)on1 (stereo not drawn) | inactive: 16.2%
O=C(CN1CCN(Cc2ccc(Cl)cc2)CC1)N/N=C/C=C/c1ccccc1[N+](=O)[O-] | inactive: 15.9%
CCc1ccc(/C=C2\SC(N3CCOCC3)=NC2=O)cc1 | inactive: 21.8%
O=C(NCc1ccccc1)C(c1ccc(F)cc1)N(Cc1cccs1)C(=O)c1cnccn1 (stereo not drawn) | inactive: 4.69%
Cc1cccn2c(=O)c(C=O)c(N3CC(C)OC(C)C3)nc12 (stereo not drawn) | inactive: -2.22%
CN(/N=C/c1cccnc1)C1=NS(=O)(=O)c2ccccc21 | inactive: 1.76%
O=C(CCCc1nc(-c2ccccc2)no1)NC1CCCC1 | inactive: 8.89%
O=C(O)Cc1sc(-c2ccc(C(=O)O)cc2)nc1-c1ccccc1 | inactive: -8.04%
CCOP(=O)(OCC)c1nc(-c2ccccc2)oc1NCc1ccccc1 | inactive: 2.79%
O=C(NC1CCCC1)C(c1cccnc1)N(Cc1ccccc1)C(=O)c1csnn1 (stereo not drawn) | inactive: 4.11%
CCOc1ccc(S(=O)(=O)/N=C(/Nc2ccc(C(C)=O)cc2)c2ccccc2)cc1 | inactive: -2.92%
COc1cccc(/C=N/Nc2nnc(C)n2N)c1O | inactive: 14.3%
N#Cc1ccccc1OCC(=O)NC1CCCCC1 | inactive: 2.54%
COc1ccc(N(CC(=O)NC2CCCC2)C(=O)CCC(=O)Nc2nc(C)cs2)cc1OC | inactive: 1.23%
CCCCc1c(C)nc2ccccc2c1SCCC#N | inactive: -6.66%
Cc1cc(S(=O)(=O)Nc2nc(CN3CCOCC3)nc3sc4c(c23)CCC4)ccc1F | inactive: -4.51%
Cc1ccc(S(=O)(=O)N/N=C/c2cccc(OC3CSC3)c2)cc1 | inactive: 23.9%

Reference: PubChem BioAssay AID1347073 (National Center for Advancing Translational Sciences (NCATS), 2019)
